Publication PMC3681934
Results are given in words; binding and its absence hold for the method and conditions named. Binding seen in cells or lysates may run through a third protein. Some results given as binding are weak or reduced against the parent protein; the word gives no strength. Sequences can lack the tags named with a protein.

Amino acid sequences for entries named in this document (tags omitted).
UniProt P16054: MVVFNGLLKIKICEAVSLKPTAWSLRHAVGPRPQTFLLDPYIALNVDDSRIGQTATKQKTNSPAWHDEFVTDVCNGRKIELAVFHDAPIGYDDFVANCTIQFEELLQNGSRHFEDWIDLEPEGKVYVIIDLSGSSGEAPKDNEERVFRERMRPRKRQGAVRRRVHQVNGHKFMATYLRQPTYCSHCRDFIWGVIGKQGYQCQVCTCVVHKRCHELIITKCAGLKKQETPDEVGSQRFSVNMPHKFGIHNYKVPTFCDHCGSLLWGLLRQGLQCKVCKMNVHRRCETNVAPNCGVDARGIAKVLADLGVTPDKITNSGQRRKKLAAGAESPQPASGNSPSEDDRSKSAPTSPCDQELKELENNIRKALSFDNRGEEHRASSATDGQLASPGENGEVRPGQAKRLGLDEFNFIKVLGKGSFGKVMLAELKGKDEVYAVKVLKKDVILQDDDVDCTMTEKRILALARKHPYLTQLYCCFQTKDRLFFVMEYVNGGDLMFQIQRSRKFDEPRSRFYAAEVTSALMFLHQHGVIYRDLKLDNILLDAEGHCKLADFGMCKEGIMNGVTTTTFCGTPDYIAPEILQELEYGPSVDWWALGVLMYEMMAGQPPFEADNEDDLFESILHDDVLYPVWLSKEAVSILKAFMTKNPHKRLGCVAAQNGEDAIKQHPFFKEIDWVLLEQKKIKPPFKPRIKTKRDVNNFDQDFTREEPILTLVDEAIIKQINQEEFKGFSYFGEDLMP

T1: MBP-fusion protein with the TIR domain of IL1RAPL1 (mouse) (UniProt P59823)
T1 sequence: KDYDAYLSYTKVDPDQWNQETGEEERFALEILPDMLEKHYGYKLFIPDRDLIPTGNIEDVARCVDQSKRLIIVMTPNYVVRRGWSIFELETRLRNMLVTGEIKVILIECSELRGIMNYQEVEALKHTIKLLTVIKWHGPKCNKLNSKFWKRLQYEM

T2: YFP-IL1RAPL1 (mouse) (UniProt P59823)
T2 sequence: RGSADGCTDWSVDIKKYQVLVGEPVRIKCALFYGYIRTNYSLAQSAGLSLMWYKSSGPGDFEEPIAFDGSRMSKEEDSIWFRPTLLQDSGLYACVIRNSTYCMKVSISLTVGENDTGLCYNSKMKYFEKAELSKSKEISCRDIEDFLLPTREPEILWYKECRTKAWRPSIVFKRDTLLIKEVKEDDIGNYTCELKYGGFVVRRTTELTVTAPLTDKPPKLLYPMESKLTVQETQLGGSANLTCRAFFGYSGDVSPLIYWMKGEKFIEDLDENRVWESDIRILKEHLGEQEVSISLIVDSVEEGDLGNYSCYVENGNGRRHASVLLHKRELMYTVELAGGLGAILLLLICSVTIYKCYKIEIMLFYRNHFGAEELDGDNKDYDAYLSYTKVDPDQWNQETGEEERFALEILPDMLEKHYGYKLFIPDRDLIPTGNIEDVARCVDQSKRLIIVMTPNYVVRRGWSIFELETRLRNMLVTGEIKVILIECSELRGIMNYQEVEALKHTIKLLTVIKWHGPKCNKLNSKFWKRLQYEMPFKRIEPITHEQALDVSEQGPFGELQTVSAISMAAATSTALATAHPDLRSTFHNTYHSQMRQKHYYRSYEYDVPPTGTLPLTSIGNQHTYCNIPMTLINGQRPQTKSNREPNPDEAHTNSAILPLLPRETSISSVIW

T3: FLAG-IL1RAPL1 (mouse) (UniProt P59823)
T3 sequence: T2 sequence

B1: myc-PLCβ1 (enzyme, UniProt Q9Z1B3 1-1216)
chain: MAGAQPGVHALQLKPVCVSDSLKKGTKFVKWDDDSTIVTPIILRTDPQGFFFYWTDQNKETELLDLSLVKDARCGKHAKAPKDPKLRELLDVGNIGHLEQRMITVVYGPDLVNISHLNLVAFQEEVAKEWTNEVFSLATNLLAQNMSRDAFLEKAYTKLKLQVTPEGRIPLKNIYRLFSADRKRVETALEACSLPSSRNDSIPQEDFTPDVYRVFLNNLCPRPEIDNIFSEFGAKSKPYLTVDQMMDFINLKQRDPRLNEILYPPLKQEQVQVLIEKYEPNSSLAKKGQMSVDGFMRYLSGEENGVVSPEKLDLNEDMSQPLSHYFINSSHNTYLTAGQLAGNSSVEMYRQVLLSGCRCVELDCWKGRTAEEEPVITHGFTMTTEISFKEVIEAIAECAFKTSPFPILLSFENHVDSPKQQAKMAEYCRLIFGDALLMEPLEKYPLESGVPLPSPMDLMYKILVKNKKKSHKSSEGSGKKKLSEQASNTYSDSSSVFEPSSPGAGEADTESDDDDDDDDCKKSSMDEGTAGSEAMATEEMSNLVNYIQPVKFESFEISKKRNKSFEMSSFVETKGLEQLTKSPVEFVEYNKMQLSRIYPKGTRVDSSNYMPQLFWNAGCQMVALNFQTVDLAMQINMGMYEYNGKSGYRLKPEFMRRPDKHFDPFTEGIVDGIVANTLSVKIISGQFLSDKKVGTYVEVDMFGLPVDTRRKAFKTKTSQGNAVNPVWEEEPIVFKKVVLPSLACLRIAAYEEGGKFIGHRILPVQAIRPGYHYICLRNERNQPLTLPAVFVYIEVKDYVPDTYADVIEALSNPIRYVNLMEQRAKQLAALTLEDEEEVKKEADPGETSSEAPSETRTTPAENGVNHTASLAPKPPSQAPHSQPAPGSVKAPAKTEDLIQSVLTEVEAQTIEELKQQKSFVKLQKKHYKEMKDLVKRHHKKTTELIKEHTTKYNEIQNDYLRRRAALEKSAKKDSKKKSEPSSPDHGSSAIEQDLAALDAEMTQKLIDLKDKQQQQLLNLRQEQYYSEKYQKREHIKLLIQKLTDVAEECQNNQLKKLKEICEKEKKELKKKMDKKRQEKITEAKSKDKSQMEEEKTEMIRSYIQEVVQYIKRLEEAQSKRQEKLVEKHNEIRQQILDEKPKLQTELEQEYQDKFKRLPLEILEFVQEAMKGKISEDSNHGSAPPSLASDAAKVNLKSPSSEEIERENPGREFDTPL
B2: myc-SNIP (protein, UniProt Q9QWI6 1-1250)
chain: MQPWQCLRRFALAWWERTAEGRARSPREEVGPRDPGGRGEPDPERSSPPMLSADDAEYPREYRTLGGGGGGGSGGRRFSNVGLVHTSERRHTVIAAQSLEALSGLQKADADRKRDAFMDHLKSKYPQHALALRGQQDRMREQVGGWTVDPVCLLSSLCSHLHGDSTPSGAGQPAQQPNYWSFKTRSSRHTQGAQPGLADQAAKLSYASAESLETMSEAELPLGFSRMNRFRQSLPLSRSASQTKLRSPGVLFLQFGEETRRVHITHEVSSLDTLHALIAHMFPQKLTMGMLKSPNTAILIKDEARNVFYELEDVRDIQDRSIIKIYRKEPLYAAFPGSHLTNGDLRREMVYASRESSPTRRLNNLSPASHLASSSPPPGLPSGLPSGLPSGSPSRSRLSYAGGRPPSYAGSPVHHAAERLGGAPTGQGVSPSPSAILERRDVKPDEDLAGKAGGMVLVKGEGLYADPYGLLHEGRLSLAAAAETHSHTRARAACTSGVPCALSAPTPLPRCSPTWRTRCTRRALAALYGDGYGFRLPPSSPQKLADVSAPSGGPPPPHSPYSGPPSRGSPVRQSFRKDSGSSSVFAESPGGKARSTGSASTAGAPPSELFPGPGERSLVGFGPPVPAKDTETRERMEAMEKQIASLTGLVQSALLRGSEPETPSEKVEGSNGAATPSAPVCGSGSKSSGATPVSGPPPPSASSTPAGQPTAVSRLQMQLHLRGLQNSASDLRGQLQQLRNVQLQNQESVRALLKPTEADVSMRVSEAARRQEDPLQRQRTLVEEERLRYLNDEELITQQLNDLEKSVEKIQRDVAHNHRLMPGPELEEKALVLKQLGETLTELKAHFPGLQSKMRVVLRVEVEAVKFLKEEPQRLDGLLKRCRGVTDTLAQIRRQVDEGMWPPPNNLLNQSPKKVAAETDFSKGLDFEIPPPSPPLNLHELSGPAEGTPLTPKSTNPTKCLDASSKRNTDKAVSVEAAERDWEEKRAALTQYSAKDINRLLEETQAELLKAIPDLDCASKTHPGPAPTPDHKPPKAPHGQKAAPRTEPSGRRGSDELTVPRYRTEKPSKSPPPPPPRRSFPSSHGLTTTRTGEVVVTSKKDSVFIKKAESEELEVQKPQVKLRRAVSEVVRPASTPPIMASAIKDEDDEERIIAELESGGSSVPPMKVVTPGASRLKAAQGPAGSPDKGKHGKQRTEYMRIQAQQQATKPSKEVSGPNETSSPGSEKPSGSRTSIPVLTSFGARNSSISF
B3: FLAG-Rasal1 (protein, UniProt Q9Z268 1-799)
chain: MAKSGSLSIRVVEGRALPAKDVSGSSDPYCLVKVDDQVVARTATIWRSLSPFWGEEYTVHLPLDFHHLAFYVLDEDTVGHDDIIGKISLSKEAITADPRGIDSWINLSRVDPDAEVQGEVCLDVKLLEDARGRCLRCHVRQARDLAPRDISGTSDPFARVFWGNHSLETSTIKKTRFPHWDEVLELREAPGTTSPLRVELWDWDMVGKNDFLGMVEFTPQTLQQKPPNGWFRLLPFPRAEDSGGSLGALRLKVRLTEDRVLPSQYYQPLMELLLESVQGPAEEDTTSPLALLEELASGDCRQDLATKLVKLFLGRGLAGPFLDYLTRREVARTNDPNTLFRSNSLASKSMEQFMKLVGMRYLHEVLRPVISRVFEEKKYMELDPCKMDLNRSRRISFKGTPTEEQVRETSLGLLTGYLGSVVDAIVSSTGRCPLALRLAFKQLQRCVEKRFSGIEHQDVKYLAISGFLFLRFFAPAILTPKLFDLRDQHADPQTSRSLLLLAKAVQSIGNLGQQLGQGKEQWLAPLHPFLLQSISRVRDFLDQLVDVDEDEEAGGPACALVQPSTIVREGFLLKRKEEPGGLATRFAFKKRYFRLSGRDLSYSKTPEWQVHTSIPLSCIRAVEHVDEGAFQLPHVMQVVTQDGAGTSHTTYLQCKNVNDLNQWLSALRKASAPNPGKLVACHPGAFRSGRWTCCLQAERSAAGCSRTHSAITLGDWSDPLDPDAEAQAVYRQLLLGRDQLRLKLLEDSSLDTEVDPGRDSSATDGPCAEVLAQQRAATTHLLQVLEDLEQAHEEFQKRG
B4: FLAG-Snap91 (protein, UniProt Q61548 1-901)
chain: MSGQTLTDRIAAAQYSVTGSAVARAVCKATTHEVMGPKKKHLDYLIQATNETNVNIPQMADTLFERATNSSWVVVFKALVTTHHLMVHGNERFIQYLASRNTLFNLSNFLDKSGSHGYDMSTFIRRYSRYLNEKAFSYRQMAFDFARVKKGADGVMRTMVPEKLLKSMPILQGQIDALLEFDVHPNELTNGVINAAFMLLFKDLIKLFACYNDGVINLLEKFFEMKKGQCKDALEIYKRFLTRMTRVSEFLKVAEQVGIDKGDIPDLTQAPSSLMETLEQHLNTLEGKKPGNNEGSGAPSPLSKSSPATTVTSPNSTPAKTIDTSPPVDIFATASAAAPVSSAKPSSDLLDLQPDFSGAAAGAAAPVVPPSGGATAWGDLLGEDSLAALSSVPCEAPISDPFAPEPSPPTTTTEPASASASTTTAVTAVTTEVDLFGDAFAASPGEAPAASEGATAPATPAPVAAALDACSGNDPFAPSEGSAEAAPELDLFAMKPPETSAPVVTPTASTAPPVPATAPSPAPTAVAATAATTTAAAAATTTATTSAAAATTAAAPPALDIFGDLFDSAPEVAAAPKPDAAPSIDLFGTDAFSSPPRGASPVPESSLTADLLSVDAFAAPSPASTASPAKAESSGVIDLFGDAFGSGASETQPAPQAVSSSSASADLLAGFGGSFMAPSTTPVTPAQNNLLQPSFEAAFGTTPSTSSSSSFDPSVFDGLGDLLMPTMAPSGQPAPVSMVPPSPAMAASKGLGSDLDSSLASLVGNLGISGTTSKKGDLQWNAGEKKLTGGANWQPKVTPATWSAGVPPQGTVPPTSSVPPGAGAPSVGQPGAGFGMPPSGTGMTMMSQQPVMFAQPMMRPPFGAAAVPGTQLSPSPTPATQSPKKPPAKDPLADLNIKDFL

What was measured:
[1] = target: T1, MBP-fusion protein with the TIR domain of IL1RAPL1 (mouse); experiment: pull-down; lysates of transfected HEK 293T cells incubated with amylose resins coupled to purified MBP-fusion proteins of IL1RAPL1 domains; immunoblotting with anti-FLAG or anti-Myc antibody; only the target purified
[2] = target: T2, YFP-IL1RAPL1 (mouse); experiment: co-IP; HEK 293T cells co-transfected; lysed in TNE buffer (50 mM Tris-HCl pH 7.5, 1% Nonidet P-40, 150 mM NaCl, 5 mM EDTA); immunoprecipitation with anti-GFP or anti-FLAG antibody, western blotting with anti-FLAG or anti-Myc antibody
[3] = target: T3, FLAG-IL1RAPL1 (mouse); experiment: as above

binding [1]	binding [2]	binding [3]	Molecule
binds	binds	–	FLAG-PKCε (from UniProt P16054 1-737) (enzyme)
–	–	binds	B1
–	–	binds	B2
–	binds	–	B3
–	no binding	–	B4
